# The list shows a part of the results.
# Tested on: PfHDP1 homeodomain (GST-tagged)
# Assay: gcPBM binding intensity (ln(normalized median fluorescence intensity)); higher = stronger DNA binding
# Method in brief: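 The highest Masliner-normalised natural-log median intensity across replicate spots of either probe orientation is reported as binding intensity. GST-tagged P. falciparum DNA-binding domains expressed in E. coli were applied for 1 h to an Agilent 4 × 180k array of primer-extended double-stranded 36-bp intergenic genomic probes plus negative controls, and bound protein was detected with Alexa488 anti-GST antibody and scanned at 488 nm.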
row,Sequence,gcPBM binding intensity (ln)
1,TTTTTATTCGATGATCAAATAGGTATATACAAAAAA [CACACA_negctrl_site1813],7.03
2,TTATTTAAAAAAAAGTGTACCCATATATTATAAATC [XGTACX_site8374],6.22
3,GCATCCCTTTTTATGTGTACATACAAAGGCAATTAC [XGTACX_site6977],6.92
4,TATTGTTTTAAAGAGACATGCAATATATATTATTCC [TGCATGCA_site752],6.43
5,AAAATATAAATCTAAGCATGCAAAAAAAATTTATAA [TGCATGCA_site1008],6.69
6,AATAATCATGATCAAAGTACTTATGAATACCAAAAA [XGTACX_site2572],7.05
7,AAAGACGCAAAATTGGTGCGCTGCTTTTAGCATTTT,6.65
8,AAAAAAAAAAAGTACACACATACATATAAATATATA [CACACA_site1809],6.41
9,ATTTATATCCTTAAACGTACATTGTATTGTATTTTA [XGTACX_site6080],6.43
10,ACAGAATATTTAATTCAACACACATACATATTTATT [CACACA_site8734],6.49
11,TATAAGGTGTCCTATACACACTCCAATAGATATATA [CACACA_site7066],6.27
12,AATTTATATTTTCGTAGTACGTATTTTATTCTTTTG [XGTACX_site4162],6.29
13,ATTACATGCAATATATGTACGTAATATATATATATA [XGTACX_site2300],9
14,CTGAACCCGTTATGGTGTACATAAAATAAGACACAG [XGTACX_site3484],6.4
15,TGCATGCATTATCATAGTACATATAATGTTGTATAA [XGTACX_site2775],6.56
16,TAATCTTTCGTACATGTACACACAGAAAAAAAAAAA [CACACA_site8798],6.46
17,TATTAAGTATTTTACGTACACACTTATAAATGTACA [CACACA_site3885],6.45
18,ATTATTAAGTTTCACAAGAACATTGTTAACAATTTT [CACACA_negctrl_site1128],6.39
19,TTTATATATGTAAATGCACACATATGTGTATATACT [CACACA_site8493],9.89
20,ATATATAATATTTTTATTTTTATTTTTTTTTTATGA [TGCATGCA_negctrl_site577],6.14
21,TACCATGTTCAAATTACACACATATAATGTAATATA [CACACA_site5150],6.56
22,ATTAAGTTCAAATGTAGTACGTGTAAAAAAAAAAAA [XGTACX_site1578],6.67
23,TATAGGTATATATTATGTACTTATAATTATATAGAT [XGTACX_site1912],6.36
24,AAAATAAATAAATAAATAAATATATATATATATATA [XGTACX_negctrl_site345],9.09

# From the supplement of paper PMC11417369
